The campaign covered roughly 360,000 compounds. About 520 (0.14%) were called active. Inconclusive means that the source gave no clear call. Such entries were picked first, then a sample of the others. Calls follow the shape of the dose curve; as a rule, active = well fitted inhibition curve with a large enough effect; inconclusive = small, poorly fitted or top-dose-only effect; inactive = no such curve, though single readings can be large or run the other way. No potency is given beside an inconclusive call; the fits are too rough.
Biological target: Rap guanine nucleotide exchange factor 3 (Homo sapiens) (UniProt O95398)
Chain of UniProt O95398 (O95398 whole entry, looked up): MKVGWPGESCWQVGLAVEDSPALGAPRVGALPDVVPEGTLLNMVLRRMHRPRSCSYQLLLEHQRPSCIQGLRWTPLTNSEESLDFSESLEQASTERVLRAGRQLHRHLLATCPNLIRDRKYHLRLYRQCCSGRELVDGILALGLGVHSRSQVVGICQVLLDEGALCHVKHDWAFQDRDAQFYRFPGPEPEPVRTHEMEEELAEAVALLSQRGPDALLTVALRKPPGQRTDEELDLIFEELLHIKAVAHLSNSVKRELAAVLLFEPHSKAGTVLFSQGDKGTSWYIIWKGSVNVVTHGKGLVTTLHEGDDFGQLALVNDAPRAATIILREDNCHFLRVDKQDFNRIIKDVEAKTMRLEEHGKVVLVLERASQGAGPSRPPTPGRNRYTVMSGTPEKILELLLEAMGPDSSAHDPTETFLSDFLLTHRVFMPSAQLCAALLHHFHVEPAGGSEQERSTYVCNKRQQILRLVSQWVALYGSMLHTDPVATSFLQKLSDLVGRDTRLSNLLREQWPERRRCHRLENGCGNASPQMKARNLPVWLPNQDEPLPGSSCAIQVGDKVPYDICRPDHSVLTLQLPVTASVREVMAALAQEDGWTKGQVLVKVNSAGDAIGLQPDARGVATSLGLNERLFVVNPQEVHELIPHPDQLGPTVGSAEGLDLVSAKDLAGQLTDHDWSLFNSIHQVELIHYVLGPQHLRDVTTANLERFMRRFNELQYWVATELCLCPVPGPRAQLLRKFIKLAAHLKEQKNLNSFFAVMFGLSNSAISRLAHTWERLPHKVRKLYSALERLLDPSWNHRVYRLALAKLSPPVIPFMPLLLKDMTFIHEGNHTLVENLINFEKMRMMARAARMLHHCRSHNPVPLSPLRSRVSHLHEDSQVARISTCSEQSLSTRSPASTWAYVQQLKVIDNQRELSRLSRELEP
Experiment: qHTS for Antagonist of cAMP-regulated guanine nucleotide exchange factor 3 (EPAC1): primary screen; also: nearly all actives have a fitted effect of over 50% in size;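 as to activity change, negative = inhibition: plate controls were vehicle for no effect and positive control for full effect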
Settings: EPAC1 GEF assay, Rap1b-BODIPY-GDP exchange fluorescence; activity change, negative = inhibition: at 115 µM (top of the series)
Potency is read from the fitted curve at half-maximal effect; tags tell the direction and shape of the fitted curve.

Compound	activity change, negative = inhibition	Potency
Cc1ccc(C)c(N2CCN(c3ncnc4c3cnn4-c3ccccc3)CC2)c1	inconclusive: -7.29% [inhibitor]	
NC(=S)Nc1ccc(Cl)c(Cl)c1	inactive: -5.35%	
Cc1noc(C)c1S(=O)(=O)Nc1ccc2c(c1)C(=O)N([C@@H](C)CO)C[C@@H](C)[C@@H](CN(C)CC1CCCCC1)OCCCC[C@@H](C)O2		inconclusive [inhibitor, single point]
COc1ccccc1CN1CCC(n2nccc2NC(=O)CCOc2ccccc2)CC1	inactive: 2.69%	
COc1cccc(OC)c1C(=O)Nc1ccc2c(c1)Cc1ccccc1-2		inconclusive [inhibitor, single point]
Oc1c(CN2CCN(c3ccc(F)cc3)CC2)cc(Cl)c2cccnc12		inconclusive [inhibitor, full curve, poor fit]
Cc1cccc2sc(N(CCCN(C)C)C(=O)c3ccc4ncsc4c3)nc12	inactive: -23.7%	
COc1cccc(NC(=O)CSc2nc3ccccc3c(=O)n2CCCC(=O)NCCCN2CCOCC2)c1		inconclusive [inhibitor, single point]
COC(=O)N/N=C/c1ccc([N+](=O)[O-])s1		inconclusive [inhibitor, single point]
COc1cc(/C=C2\SC(=S)N(CCC(=O)Nc3cccc(O)c3)C2=O)cc(OC)c1OC		inconclusive [inhibitor, single point]
COc1ccc(/C=C2\SC(=S)N(CCC(=O)N(CCO)Cc3ccccc3)C2=O)cc1OC		inconclusive [inhibitor, full curve]
Cc1ccc(Cc2c(-c3cccc(Br)c3)nc3ccc(Br)cn23)cc1		inconclusive [inhibitor, single point]
CNC(=S)N/N=C(\C)c1ccc(Cl)s1	inactive: -12%	
O=C(NCCN1CCN(Cc2ccc([N+](=O)[O-])cc2)CC1)C(=O)Nc1ccccc1	inactive: 8.87%	
COc1ccc(Cl)cc1NC(=O)CN(C)CC(=O)Nc1ccc(Br)cc1		inconclusive [inhibitor, single point]
Cc1cccc2c1-c1sc(C(=O)N3CCCCC3)cc1CO2	inactive: -23%	
CCOc1ccc(NC(=O)CC2C(=O)N(c3ccc(OC)cc3)C(=O)N2CCc2cccs2)cc1 (centres undefined)		inconclusive [inhibitor, partial curve]
COc1cc(NC(=O)c2ccc(Cl)cc2)c(OC)cc1NC(=O)CN1CCCCC1		inconclusive [inhibitor, full curve, poor fit]
CCOC(=O)CSc1ccc2nnc(-c3cccnc3)n2n1	inactive: -3.89%	
